# Source: the supplement of paper PMC10126150
# Values marked as one replicate rest on one cluster of the flow cell; about a third of the high ones do not repeat.
# System: ATP
# Assay: switch fluorescence ratio, 500 uM ATP over buffer (Cy3 cluster intensity, sum of 5 cycles each) (fold (ratio)); higher = stronger signal-on switching upon ATP binding; sequences stand for … in TCGTCGGCAGCGTCAGATGTGTATAAGAGACAGTTTTTTTTTTTTTTTTTTTTTTTTT…TC
# Conditions: aptamer strand: ATP DNA aptamer (quencher-CACCTGGGGGAGTATTGCGGAGGAAGG + anchor), 100 nM annealed; ATP concentration: 500 uM; one replicate
# Outline: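 Switching-strand clusters labelled with Cy3 on a modified Illumina MiSeq flow-cell were annealed to 100 nM quencher-labelled ATP aptamer, imaged in selection buffer, and re-imaged after 15 min with 500 uM ATP at 22 °C. This was done over five cycles with NaOH stripping and re-annealing in between. The fluorescence ratio is summed target-cycle over summed buffer-cycle Cy3 intensity per cluster, averaged per switch-domain sequence, excluding clusters outside 100-1000 RFU.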
# 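Further: ATP exposure 15 min at 22 °C before imaging.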
row,Sequence,switch fluorescence ratio
1,TCTCTCACGA,1.05
2,TCTGACCGTT,1.01
3,TCTGAGAACT,0.994
4,TCTGAGACGG,0.974
5,TCTGAGCGTA,0.987
6,TCTGAGGAGG,1.01
7,TCTGAGGGAC,1
8,TCTGATAGTG,0.984
9,TCTGATGTAG,0.99
10,TCTGCAACTG,1.24
11,TCTGCAGGCG,1.05
12,TCTGCCTCGT,1.01
13,TCTGCGAGC,1.04
14,TCTGCGCATG,1.02
15,TCTGCGGTGG,1.39
16,TCTGGCCCAG,0.958
17,TCTGGGACGG,1.01
18,TCTGGGATTC,1.02
19,TCTGGGCGAA,0.982
20,TCTGGGGTT,1.01
21,TCTGGTCACG,0.964
22,TCTGGTGGGT,1
23,TCTGTAGGAT,0.99
24,TCTGTCACTC,1.01
25,TCTGTCGCCA,1.02

row,Sequence,switch fluorescence ratio
1,TCTGTGGTCC,0.942
2,TCTGTTGGGT,1
3,TCTGTTTGCC,0.957
4,TCTGTTTTG,1.01
5,TCTTAATAAG,1
6,TCTTAATTAC,1.07
7,TCTTACCCCA,1.03
8,TCTTACCCGG,1.01
9,TCTTACCCTC,1.02
10,TCTTACGTAG,0.968
11,TCTTACTCA,1.27
12,TCTTAGCTCT,1
13,TCTTAGGGTC,0.999
14,TCTTAGTGT,0.997
15,TCTTATAAAG,1.08
16,TCTTATACAT,1.04
17,TCTTATCTAG,1.03
18,TCTTATCTTC,0.99
19,TCTTATGAT,1.02
20,TCTTATTGAC,1.05
21,TCTTCAGATG,1.01
22,TCTTCATTAC,1.29
23,TCTTCGGCAA,1.12
24,TCTTCGGG,0.939
25,TCTTCGGGGA,0.999

row,Sequence,switch fluorescence ratio
1,TCTTCGTGAA,4.06
2,TCTTCGTGTT,0.957
3,TCTTCTAGCA,1.12
4,TCTTGATATG,1.02
5,TCTTGCGTTA,1.06
6,TCTTGGATCC,1.01
7,TCTTGGCAAG,0.973
8,TCTTTAAGAG,0.996
9,TCTTTACAAT,1.68
10,TCTTTACGA,1.05
11,TCTTTCGTGT,0.964
12,TCTTTGACCG,1
13,TCTTTGGAAG,1.4
14,TCTTTTAGAA,1.03
15,TCTTTTAGCA,1.01
16,TCTTTTCAAG,1.05
17,TCTTTTCCAG,1.05
18,TCTTTTTCAG,1.18
19,TGAAAAACT,1.05
20,TGAAAAAGGA,1
21,TGAAAAGGAA,0.995
22,TGAAAAGTAG,0.961
23,TGAAACATCT,1.01
24,TGAAAGGGCT,1.01
25,TGAAATCATT,0.951

row,Sequence,switch fluorescence ratio
1,TGAAATCGCT,0.977
2,TGAAATGATT,0.928
3,TGAACAGATG,0.985
4,TGAACATGAC,1.3
5,TGAACCCATG,1.23
6,TGAACCTAAT,0.996
7,TGAACGTGAG,1.02
8,TGAACTAGCG,1.04
9,TGAAGCTTGC,1.13
10,TGAAGGAACA,1.04
11,TGAAGGGAG,0.991
12,TGAAGGGAT,1
13,TGAAGTCATA,1.03
14,TGAAGTCTAC,0.999
15,TGAAGTTATT,1.05
16,TGAAGTTCGT,0.997
17,TGAATAGTAG,1.01
18,TGACAAAAG,0.985
19,TGACAAAGGT,0.991
20,TGACAAATTT,0.987
21,TGACACGGTG,1.05
22,TGACAGATAA,1.03
23,TGACATTTCC,1.15
24,TGACATTTTT,0.967
25,TGACCGCCTC,1.53

row,Sequence,switch fluorescence ratio
1,TGACCGTCT,0.992
2,TGACCTCCCG,1.08
3,TGACCTCTAG,1.01
4,TGACCTGGGC,1.03
5,TGACCTTTA,1.06
6,TGACGACGGC,1.03
7,TGACGACTAG,1.06
8,TGACGATGG,0.936
9,TGACGCTTGG,1.04
10,TGACGGACCT,1.27
11,TGACGGAGAG,1.07
12,TGACGGGTCG,1
13,TGACTAAGCA,1.03
14,TGACTAAGGG,0.968
15,TGACTCACAC,1.52
16,TGACTCACCG,1.03
17,TGACTCTAAG,0.995
18,TGACTTGGTG,0.987
19,TGAGACATGA,0.973
20,TGAGACTGAA,0.982
21,TGAGACTGTG,1.06
22,TGAGAGATGT,1.01
23,TGAGATGGAG,1.02
24,TGAGCGGGGA,1.02
25,TGAGCGGGTC,0.995

row,Sequence,switch fluorescence ratio
1,TGAGCGTGCT,1.03
2,TGAGGAAAGT,0.989
3,TGAGGGGCTG,0.984
4,TGAGGGTAAA,1.02
5,TGAGGGTAGA,1.03
6,TGAGGTATAA,0.984
7,TGAGGTCCTT,1.05
8,TGAGGTGACG,0.917
9,TGAGTAACAA,0.992
10,TGAGTCGTTT,0.967
11,TGAGTGGCCA,0.994
12,TGATAAAAGA,1.12
13,TGATAATTT,0.979
14,TGATACCTCG,1.04
15,TGATACGTAT,1.03
16,TGATACTATT,0.937
17,TGATAGAGGC,1.03
18,TGATAGATTC,0.982
19,TGATAGCGGT,1
20,TGATATCATT,0.993
21,TGATATCTCG,1
22,TGATCACCTC,1.01
23,TGATCCACCG,1.05
24,TGATCCCTCT,1.01
25,TGATCGAATA,0.991

row,Sequence,switch fluorescence ratio
1,TGATCGGCAT,1.01
2,TGATCGGCTT,1
3,TGATCGTAA,1.07
4,TGATCTAAAA,0.995
5,TGATCTACCG,1.06
6,TGATGAAAAT,0.957
7,TGATGAATGT,0.99
8,TGATGAGCTG,1.07
9,TGATGAGTTG,0.979
10,TGATGATAAG,1.04
11,TGATGCATTT,1.6
12,TGATGGAAGC,1.05
13,TGATGGCGCA,0.979
14,TGATGTAAAG,0.972
15,TGATGTACAT,0.984
16,TGATGTGCGG,0.987
17,TGATGTTAAC,0.995
18,TGATGTTATC,0.945
19,TGATGTTGCA,1
20,TGATTAACCC,1.02
21,TGATTATTAA,1.07
22,TGATTCCGAA,0.962
23,TGATTCCGTC,1.06
24,TGATTCTACT,0.98
25,TGATTGCGAG,1.01

row,Sequence,switch fluorescence ratio
1,TGATTGCGGT,0.987
2,TGATTTACCT,1.26
3,TGATTTCGAT,0.997
4,TGATTTTTAG,1.05
5,TGCAAAATGA,0.977
6,TGCAAATATA,0.979
7,TGCAAATGAC,1.14
8,TGCAAGTCAC,1.01
9,TGCACAGAAG,1.02
10,TGCACCCAAC,2.02
11,TGCAGAAGAG,0.995
12,TGCAGAGCCT,0.983
13,TGCAGATGAA,0.99
14,TGCAGATTAT,0.979
15,TGCAGGCGAT,1.01
16,TGCAGTAATG,0.997
17,TGCAGTACTA,1.83
18,TGCAGTGGC,1.61
19,TGCAGTGGGT,1.01
20,TGCATAAGGA,1.02
21,TGCATCATTC,1.01
22,TGCATCGACG,0.994
23,TGCATCGGAA,1.01
24,TGCATGATAG,1.01
25,TGCATGCAAG,0.987
